According to paper PMC7819943, “Rice protein-binding microarrays: a tool to detect cis-acting elements near promoter regions in rice”:
This is one part of the list.

target: T1, OsWOX13 (Oryza sativa, UniProt Q5QMM3 1-267); assay: protein-binding microarray (RPBM); PBS, 2% BSA, 51.3 ng/ul salmon testes DNA, 50 uM zinc acetate, 200 nM TF, 25 C, 1 h; high values mean tight binding; conditions: protein: recombinant; tags: N-terminal polyhistidine and DsRed monomer fusion (pET32a); label: CyDye5-dUTP incorporated in the synthesized complementary strand; 3' TTTTT single-stranded linker to array surface; dsDNA, one strand shown
T1 sequence: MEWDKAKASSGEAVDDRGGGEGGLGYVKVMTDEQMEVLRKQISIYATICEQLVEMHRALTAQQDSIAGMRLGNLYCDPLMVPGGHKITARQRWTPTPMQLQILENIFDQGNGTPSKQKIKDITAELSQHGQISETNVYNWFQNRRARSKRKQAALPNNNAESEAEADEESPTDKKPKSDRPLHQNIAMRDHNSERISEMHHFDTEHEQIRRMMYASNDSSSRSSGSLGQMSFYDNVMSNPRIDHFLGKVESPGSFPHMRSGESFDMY
Outline: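 Transcription factors, each fused N-terminally to a polyhistidine tag and DsRed, were expressed in E. coli BL21-CodonPlus and purified on Ni–NTA. A custom Agilent array was made double-stranded by primer extension with Cy5-dUTP and blocked with 2% BSA. It was incubated with 200 nM protein in PBS, 2% BSA, salmon testes DNA and 50 µM zinc acetate at 25 °C for 1 h, then washed. The binding signal is per-feature fluorescence intensity (arbitrary units) read on an Axon 4000B scanner.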

In order of falling binding signal:
1. TGGATGATTGGTGAGATAGGTGTTCCTTATAATTATAGGGCGGAGTCACCTAGTGCAG  54800 fluorescence intensity (a.u.)
2. GCAAATCGTTAATTGACATGTCAAGAGAGTGGCAAATAGTCGGAGTCACCTAGTGCAG  49400 fluorescence intensity (a.u.)
3. TGTTGATTGAATTGCATCCCTCAACCATAATAGCAGAGAACGGAGTCACCTAGTGCAG  36300 fluorescence intensity (a.u.)
4. CTAATAATTAATTGTTGTTGCATGAGAGCCAACACGTACGCGGAGTCACCTAGTGCAG  33000 fluorescence intensity (a.u.)
5. AGGTTCAATCAACTCATCTTGTCTATTGAAACTCTTCTCGCGGAGTCACCTAGTGCAG  30500 fluorescence intensity (a.u.)
6. TAGTAATTACTACTAATCTGGTTGCCTGCATACTTAGTGTCGGAGTCACCTAGTGCAG  30500 fluorescence intensity (a.u.)
7. CGTTATAATTGATCTCCCGTTGAAACAGAATCCTGTGGTGCGGAGTCACCTAGTGCAG  30300 fluorescence intensity (a.u.)
8. ACTAATAATTGGCTATACTATTAAACCTGCTCTAATTAATCGGAGTCACCTAGTGCAG  24000 fluorescence intensity (a.u.)
9. CCATTTAGCAATTATTAATTGCTCCCCAACTCCAACTCCACGGAGTCACCTAGTGCAG  22200 fluorescence intensity (a.u.)
10. TTGGAACTGATTTGCAATAGAAGGCTATGACTAAATTGATCGGAGTCACCTAGTGCAG  21000 fluorescence intensity (a.u.)
11. GCTAATTAAAAGAATTCCGTGGATTACATGGAACCTGATACGGAGTCACCTAGTGCAG  19600 fluorescence intensity (a.u.)
12. AGGTACCGGCTTGATTGGCAGGTGTTGAGGCGATTCTTCTCGGAGTCACCTAGTGCAG  18300 fluorescence intensity (a.u.)
13. CCATAACAAATTTAATAATCAGTTAAGTTAAGCTCACCTTCGGAGTCACCTAGTGCAG  15100 fluorescence intensity (a.u.)
14. GTGACTGATGAACATGATGTTGGATGTATGGGATGGCACGCGGAGTCACCTAGTGCAG  14700 fluorescence intensity (a.u.)
15. CCTAATTGCGCCATGATTTGAAAGCAAATAAATAAATAAACGGAGTCACCTAGTGCAG  13500 fluorescence intensity (a.u.)
16. ATACGTATAATTTATAAGTAATTAATGGCAAAAGTTCACACGGAGTCACCTAGTGCAG  13400 fluorescence intensity (a.u.)
17. CAACTATAAAATAATTGACTCGGTTATCTAAAGATGAATTCGGAGTCACCTAGTGCAG  11000 fluorescence intensity (a.u.)
18. TACTTTAATTTTGGATAGACTAGTTCTTCCATGCTTTGCTCGGAGTCACCTAGTGCAG  10000 fluorescence intensity (a.u.)
19. ACGACCCGTCAATTAATCCAGAGAACACGGACTGCGTCAGCGGAGTCACCTAGTGCAG  9600 fluorescence intensity (a.u.)
20. CACTCTTGTGACATGGCAATTAACGATTTGCCACGCTCTGCGGAGTCACCTAGTGCAG  9520 fluorescence intensity (a.u.)
21. ATACGCAAATTTTAAATTGCAAATGAACATCACATATTGGCGGAGTCACCTAGTGCAG  8860 fluorescence intensity (a.u.)
22. ACTAACATGGTAGATTGCGCATTTATTTGTACTGTATTATCGGAGTCACCTAGTGCAG  8090 fluorescence intensity (a.u.)
23. CCATGATGAATTCCTGATTTTCCTATCTTCAGCAAAAGCACGGAGTCACCTAGTGCAG  7460 fluorescence intensity (a.u.)
24. TTTTATAATTGTTCATATCGCCGATGCTTATAATCATCTCCGGAGTCACCTAGTGCAG  7080 fluorescence intensity (a.u.)
25. ACAGCCAGTTGATATCAAGATTGACGCAAAATTGAATATACGGAGTCACCTAGTGCAG  6650 fluorescence intensity (a.u.)
26. TTAAACTTCTAATTTTAACGTGGAACTAAATACAGCCTAACGGAGTCACCTAGTGCAG  5360 fluorescence intensity (a.u.)
27. TGAATTGATCAAGTGCTAATAGAGTAGCAGGTCAATGCAACGGAGTCACCTAGTGCAG  5250 fluorescence intensity (a.u.)
28. CAAGTGCTAATCAATATATCCAACTCACTATAATTTTGGTCGGAGTCACCTAGTGCAG  5230 fluorescence intensity (a.u.)
29. TTTAAATTCTATTAATATAATCTTTTAAAGTAACTTCGTTCGGAGTCACCTAGTGCAG  5170 fluorescence intensity (a.u.)
30. GCCAAATATTGACTGCTGGTTTTGTTTACCCTCCGCAGTGCGGAGTCACCTAGTGCAG  5140 fluorescence intensity (a.u.)
31. GGTGACAGTTTGGTTAGTGACAAATAGTTACATTCTCGTTCGGAGTCACCTAGTGCAG  5070 fluorescence intensity (a.u.)
32. GGTGTAATAGATGAAGTTGGCATATGGATATTTGGAGGTACGGAGTCACCTAGTGCAG  4840 fluorescence intensity (a.u.)
33. TCCGACGAAAATTAAGATTATATTATGATTTTGTTAGAGACGGAGTCACCTAGTGCAG  4610 fluorescence intensity (a.u.)
34. GTATATTTAATAATAAATCAACTCGCAATGAGACAAAATGCGGAGTCACCTAGTGCAG  4570 fluorescence intensity (a.u.)
35. CCCTCTTGACAGAGCACTACTCAAGTCCCTGTATATATCCCGGAGTCACCTAGTGCAG  4540 fluorescence intensity (a.u.)
36. CGATTCTAAATTGCTACTCCCTCCGTCCCATAATATAAGGCGGAGTCACCTAGTGCAG  4420 fluorescence intensity (a.u.)
37. AGTCACATCCACCCAATCAAACACACCCTAACATTTGGAACGGAGTCACCTAGTGCAG  4230 fluorescence intensity (a.u.)
38. TAAATTAGTGTCTAACTAAAGTTAAGTCACTAGATCCAAACGGAGTCACCTAGTGCAG  4220 fluorescence intensity (a.u.)
39. CGGTAGACATATTTGATGACATAATCCAAAGTAACTATATCGGAGTCACCTAGTGCAG  4020 fluorescence intensity (a.u.)
40. CTTGCTGGTACCAATTAACATGGGTATGTTTAATTTGCTGCGGAGTCACCTAGTGCAG  3650 fluorescence intensity (a.u.)
41. TAGATCATTACGTAGATTGCATTAAGGGAAATTTCACTAACGGAGTCACCTAGTGCAG  3630 fluorescence intensity (a.u.)
42. CAACCGGTTGAACCAATCAAACCATGAACCGAGGCTATGACGGAGTCACCTAGTGCAG  3290 fluorescence intensity (a.u.)
